# Data as given in PubChem BioAssay AID686979 (National Center for Advancing Translational Sciences (NCATS), 2013).
# The campaign covered roughly 420,000 compounds. About 50,000 (12%) were called active. The inconclusive results got no clear call from the source; some entries with a clear call stand among them for comparison. Calls come from the whole dose curve; as a rule, active = well fitted inhibition curve with a large enough effect; inconclusive = small, poorly fitted or top-dose-only effect; inactive = flat fitted curve, though single readings scatter. No potency is given beside an inconclusive call; the fits are too rough.
# Assay: qHTS for Inhibitors of human tyrosyl-DNA phosphodiesterase 1 (TDP1): qHTS in cells in presence of CPT; note: nearly all actives have a fitted effect of over 55% in size
# Conditions: chicken DT40 Tdp1-/-;hTDP1 cells + 20 nM CPT, ATP luminescence, 48 h; activity change, negative = growth inhibition: at 46.2 µM (top of the series)
# Summary of the method: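 Chicken DT40 Tdp1-/- cells complemented with human TDP1, 400 cells/well, exposed to compounds plus 20 nM camptothecin for at least 48 h at 37 C; viability read as ATP content by CellTiter-Glo luminescence.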
# % is set by controls: 0 for no effect and ±100 for the full control effect; potency is the fitted concentration of half-maximal effect; tags give direction and shape of the fitted curve.
Structure (SMILES),Potency,"activity change, negative = growth inhibition"
COc1ccc(/C=C(\C#N)C(=O)C(C)(C)n2cncn2)cc1,inactive,
N#Cc1ccc2ccn(CC(=O)NCc3ccccc3)c2c1,"inconclusive [inhibitor, single point]",
O=C(/C=C/c1ccccc1[N+](=O)[O-])Nc1cccc(S(=O)(=O)NC2=NCCCCC2)c1,"inconclusive [inhibitor, single point]",
CC(=O)N1CCCc2cc(S(=O)(=O)Nc3ccc(C)c(F)c3)ccc21,"inconclusive [inhibitor, single point]",
CCc1cccc(OCC(=O)Nc2ccccc2N2CCCC2)c1,"inconclusive [inhibitor, single point]",
O=C(Cc1ccc([N+](=O)[O-])cc1)N/N=C/c1ccc([N+](=O)[O-])o1,active: 10.3 µM,
Cc1ccc(CNS(=O)(=O)c2ccc3c(c2)NC(=O)CS3)cc1,"inconclusive [inhibitor, single point]",
Cc1ccc(C(=O)N2CCc3ccccc32)cc1NC(=O)c1ccco1,"inconclusive [inhibitor, single point]",
COc1cc(NC(=O)COC(=O)CNC(=O)C23CC4CC(CC(C4)C2)C3)cc(OC)c1,"inconclusive [inhibitor, single point]",
Nc1nc(N)nc(-c2cccc(Cl)c2Cl)n1,inactive,
COc1ccc(CNc2oc(-c3ccc(COc4ccc(OC)cc4)o3)nc2C#N)cc1,"inconclusive [inhibitor, single point]",
C[C@@H]1CCCCO[C@H](CN(C)C(=O)Nc2ccc(C(F)(F)F)cc2)[C@@H](C)CN([C@H](C)CO)C(=O)c2cc(NC(=O)c3ccncc3)ccc2O1,active: 20.6 µM,
Cc1ccc(Cl)cc1Nc1nc(N2CCOCC2)nc(N2CCOCC2)n1,"inconclusive [inhibitor, single point]",
CN(CC(=O)Nc1ccc(S(=O)(=O)N2CCCC2)cc1)CC(=O)Nc1cccc(F)c1,active: 18.4 µM,
O=C(NCCC(c1ccccc1)c1ccccc1)c1cnccn1,"inconclusive [inhibitor, single point]",
CCOC(=O)C1=CC[C@@H](c2ccccc2)N(S(=O)(=O)c2ccc(C)cc2)[C@H]1c1cccc(OC)c1,active: 23.1 µM,
CN1CCN(c2ccc(NC(=O)CSc3nnnn3-c3ccccc3F)cc2)CC1,"inconclusive [inhibitor, partial curve]",
Cc1cc(C)n2nc(-c3sccc3-n3c(C)ccc3C)cc2n1,active: 23.1 µM,
Cc1ccc(NC(=O)COc2ncnc3sccc23)cc1S(=O)(=O)N(C)C,inactive,
O=C(Nc1ccc([N+](=O)[O-])cc1)c1cc(-c2ccccn2)nc2c(Cl)cccc12,"inconclusive [inhibitor, single point]",
O=C(Nc1cccc(S(=O)(=O)C(F)(F)F)c1)[C@@H]1O[C@H](CO)[C@@H](O)[C@H]1O,inactive,
Cc1onc(-c2ccc(Cl)cc2Cl)c1C(=O)/C=C/N(C)C,"inconclusive [inhibitor, single point]",
O=C(Cc1ccc(NC(=O)C2CCCN(C(=O)CCc3ccccc3)C2)cc1)Nc1cccc(C(=O)N2CCCCC2)c1 (stereo not drawn),"inconclusive [inhibitor, single point]",

Structure (SMILES),Potency,"activity change, negative = growth inhibition"
O=C(Nc1nc2ccc(C(=O)N3CCCCC3)cc2s1)C1CCCCC1,active: 2.59 µM,
O=C(CSc1nnc(-c2ccc(C(F)(F)F)cn2)o1)Nc1cccc(Cl)c1,inactive,
Cc1ccc(NC(=O)CCC(=O)N/N=C/c2cccs2)cc1,inactive,
OCCNc1c2ccccc2nc2ccccc12,active: 13 µM,
COc1ccc(-c2c(C(=O)c3ccc(Br)cc3)[nH]c(N)c2C(=O)c2ccccc2)cc1OC,"inconclusive [inhibitor, single point]",
CCCCS(=O)(=O)N1CCN(S(=O)(=O)c2ccc(Cl)s2)CC1,inactive,
CCc1noc2c1/C(=N\O)CC(c1ccccc1)C2 (stereo not drawn),"inconclusive [inhibitor, single point]",
COc1ccccc1NC(=O)c1cc(C)oc1C,inactive,
CCOCCCNC(C(=O)Nc1ccc(OC)c(Cl)c1)c1ccccc1 (stereo not drawn),"inconclusive [inhibitor, single point]",
CCOC(=O)c1ccc(N2C(=O)c3n[nH]c(C)c3C2c2ccc(O)cc2)cc1 (stereo not drawn),inactive,
CN(C)S(=O)(=O)c1cc(C(=O)NCCCn2ccc3ccccc32)ccc1Cl,"inconclusive [inhibitor, single point]",
O=C(NCc1ccco1)C(c1cccs1)N(Cc1ccccc1)C(=O)Cn1nnc2ccccc21 (stereo not drawn),"inconclusive [inhibitor, single point]",
Fc1ccc(CNCc2ccc(Br)cc2)cc1,"inconclusive [inhibitor, single point]",
Cc1cccc(NC(=O)Cn2c(=O)oc3cc(S(=O)(=O)NC4CCCC4)ccc32)c1,"inconclusive [inhibitor, single point]",
Cc1ccccc1NS(=O)(=O)c1ccc(C(=O)N(C)CC(=O)Nc2ccccc2Br)cc1,"inconclusive [inhibitor, single point]",
Nc1nc(Nc2cccc(Cl)c2)n[nH]1,"inconclusive [inhibitor, single point]",
O=C(c1cc(-c2ccc(F)cc2)no1)N1CCN(Cc2ccc3c(c2)OCO3)CC1,"inconclusive [inhibitor, single point]",
CC(=O)N1CCc2cc(S(=O)(=O)NC(Cc3ccccc3)C(=O)Nc3ccc(Cl)cc3)ccc21 (stereo not drawn),inactive,
Cc1ccc(N(C(=O)CCl)C(C(=O)NC2CCCCC2)c2cccnc2)cc1C (stereo not drawn),active: 1.84 µM,
COc1ccc(C2CC(c3c(O)cc(C)oc3=O)=NCCS2)c(OC)c1 (stereo not drawn),active: 0.461 µM,
CCOC(=O)C1(Cc2cccc(F)c2)CCN(C2CCOCC2)CC1,inactive,
CCCc1cc(NCCCCO)n2c(nc3ccccc32)c1C#N,"inconclusive [inhibitor, single point]",
O=C(Nc1ccccc1)N1CCCN(c2nccc(C(F)(F)F)n2)CC1,active: 29.1 µM,

Structure (SMILES),Potency,"activity change, negative = growth inhibition"
CCc1ccc(C(=O)COC(=O)CCc2nc3ccccc3c(=O)[nH]2)cc1,"inconclusive [inhibitor, single point]",
O=c1cc(CSc2nnc(COc3cccc4ccccc34)o2)c2ccccc2[nH]1,"inconclusive [inhibitor, single point]",
CCO[C@H]1OC(C(=O)N2CCN(Cc3ccccc3)CC2)=C[C@@H](c2ccc(C(F)(F)F)cc2)[C@@H]1CCCO,active: 20.6 µM,
Cc1ccc2c(C)nc(N3CCCC(C(=O)NC(C)(C)CO)C3)nc2c1 (stereo not drawn),,inactive: -5.72% [at 9.04 µM]
O=C(Nc1ccc(CN2CCOCC2)cc1)c1cccc(-c2cc3ccccc3oc2=O)c1,active: 16.4 µM,
CCCCN(C)C(=O)Cn1c(SCC(=O)Nc2ccc(C)c(C)c2)nc2ccccc21,"inconclusive [inhibitor, single point]",
O=C1[C@@H](Oc2ccccc2)[C@@H](c2cnc3ccccc3c2)N1c1ccccc1,active: 20.6 µM,
CC1CCN(C(=O)C(C)OC(=O)c2ccc(S(C)(=O)=O)c([N+](=O)[O-])c2)CC1 (stereo not drawn),active: 0.891 µM,
CCc1ccc(N2CCN(C(=O)c3ccc4c(c3)OCO4)CC2)cc1,"inconclusive [inhibitor, single point]",
COc1ccccc1C(=O)NC(=O)COC(=O)CNC(=O)c1ccccc1,inactive,
COc1ccc(CCNC(=O)COc2ccc(N(C)S(=O)(=O)c3ccc(C)cc3)cc2)cc1,"inconclusive [inhibitor, single point]",
O=C(Cn1nc(-c2ccc(Cl)cc2)ccc1=O)NCc1ccc2c(c1)OCO2,"inconclusive [inhibitor, partial curve, poor fit]",
Cc1cccc(Nc2c3c(nc4nncn24)CCC3)c1C,"inconclusive [inhibitor, single point]",
CCN(CC)C(=O)CCn1nc(-c2ccc(C)cc2)c2ccccc2c1=O,"inconclusive [inhibitor, single point]",
CCC1(C(=O)c2ccccc2)C(c2cccc([N+](=O)[O-])c2)C1(C(=O)OC)C(=O)OC (stereo not drawn),active: 23.1 µM,
CCOc1ccccc1C1CC(=O)Nc2cc(C)c(C)cc21 (stereo not drawn),active: 2.59 µM,
COC(=O)c1cnc(Oc2c(Cl)cc(N)cc2Cl)cc1C(F)(F)F,"inconclusive [inhibitor, single point]",
COc1ccccc1N1CCN(CC(O)COc2ccc(C)cc2C(C)(C)C)CC1 (stereo not drawn),"inconclusive [inhibitor, single point]",
COCCC(=O)N1CCC(Oc2ccc(C(=O)N3CCCCCC3)cc2)CC1,"inconclusive [inhibitor, single point]",
Fc1ccc(N/N=C/C=C/c2ccccc2)c(F)c1,"inconclusive [inhibitor, partial curve]",
CC1(C(=O)Nc2ccc(F)c(Cl)c2)Cc2c(-c3cccc(C(F)(F)F)c3)ccnc2O1 (stereo not drawn),"inconclusive [inhibitor, single point]",
CCCCCCCCN1C(=O)[C@H](CC(=O)NCc2cccc(C(F)(F)F)c2)C[C@@]2(C(=O)OCC)CCCC=C12,"inconclusive [inhibitor, single point]",
